Source: PubChem BioAssay AID624202 (National Center for Advancing Translational Sciences (NCATS), 2012)
About 4,000 (1.1%) of roughly 380,000 compounds were called active. Inconclusive means that the source gave no clear call. Such entries were picked first, then a sample of the others. Calls follow the shape of the dose curve; as a rule, active = well fitted activation curve with a large enough effect; inconclusive = small, poorly fitted or top-dose-only effect; inactive = no such curve, though single readings can be large or run the other way. Where the call is inconclusive, the potency comes from a doubtful curve fit.

Assay: qHTS Assay to Identify Small Molecule Activators of BRCA1 Expression; also: nearly all actives have a fitted effect of over 80% in size
Conditions: MCF7-BRCA1-FFLuc reporter, luminescence, 48 h; activation: at 46.1 µM (top of the series), scaled: vehicle 0%, 10 µM genistein 100% unless noted
Outline: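 Quantitative HTS in MCF7 cells stably reporting BRCA1 expression via firefly luciferase. Compound treatment lasts 48 h at 37 °C in phenol-red free MEM. Activation is expressed relative to genistein at 10 microM and DMSO.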
Potency is read from the fitted curve at half-maximal effect; tags tell the direction and shape of the fitted curve.

| SMILES | Potency | activation |
| --- | --- | --- |
| COc1ccc(C(=O)c2nccc3ccccc23)cc1 | inconclusive: 12.6 µM [activator, partial curve, poor fit] | – |
| Cc1ccc(NC(=O)c2oc3ccc4c(c3c2C)C(=O)CC(C)(C)O4)c(C)c1 | inconclusive: 2.51 µM [activator, full curve, poor fit] | – |
| CC(C)c1nn2c(=O)cc(COC(=O)c3cccs3)nc2s1 | inconclusive: 31.6 µM [activator, single point] | – |
| N#CCc1nc(CSc2nc3ccccc3o2)cs1 | inconclusive: 11.2 µM [activator, partial curve, poor fit] | – |
| Cc1ccc2nc(SCC(=O)Nc3ccc4sc(C)nc4c3)c(C#N)cc2c1 | inconclusive: 1.78 µM [activator, full curve, poor fit] | – |
| COCCNc1c(-c2cc3ccc(C)c(C)c3[nH]c2=O)nc2ccccn12 | active: 2.24 µM | – |
| Cc1ccc2c(CC(=O)NNC(=O)c3ccccc3)coc2c1 | inconclusive: 2.51 µM [activator, partial curve, poor fit] | – |
| CC1Cc2ccccc2N1C(=O)COC(=O)c1ccc(Cl)nc1 (stereo not drawn) | – | inactive: -6.31% |
| C=CCn1cnc2c(NCc3ccccc3)ncnc21 | active: 3.98 µM | – |
| C(=NOCc1ccccc1)c1cccnc1 | inconclusive: 14.1 µM [activator, partial curve, poor fit] | – |
| CCOC(=O)c1cc(C(=O)Nc2ccccc2F)nn1C | inconclusive: 3.98 µM [activator, partial curve, poor fit] | – |
| C=CCn1cccc(C(=O)Nc2ccc(Cl)cc2)c1=O | active: 5.62 µM | – |
| COc1c(F)cccc1C1=CC(=O)C[C@H](c2ccc(F)cc2)C1 | – | inactive: 0.466% |
| CC12CCC(C(=O)Nc3nc4ccccc4s3)(OC1=O)C2(C)C (stereo not drawn) | inconclusive: 11.2 µM [activator, partial curve, poor fit] | – |
| CC(C)CC(=O)N(c1nnc(-c2cccnc2)s1)C1CCCC1 | – | inactive: -2.41% |
| O=C(Nc1ncc([N+](=O)[O-])s1)c1cccs1 | inconclusive: 0.501 µM [activator, full curve, poor fit] | – |
| COc1cccc(NC(=O)CN2C(=O)NC(C)(C3CC3)C2=O)c1 (stereo not drawn) | – | inactive: 4.02% |
| CCc1nn2cc(-c3ccccc3)nc2s1 | – | inconclusive: -68.4% [activator] |
| Cn1c(=O)c2c(nc(NN=C3CCCC3)n2C)n(C)c1=O | – | inactive: -1.71% |
| CCN(C(=O)CN1C(=O)COc2ccc(S(=O)(=O)N3CCOCC3)cc21)c1ccc(OC)cc1 | – | inactive: 6.15% |
| Cc1nc(=O)c(-c2ccccc2)c(C)n1-c1ccccc1Cl | – | inactive: -0.747% |
| O=C1OC(c2ccccc2)=C/C1=C/N1CCOCC1 | active: 12.6 µM | – |
| Nc1nc2ccc(-c3nc4ccccc4o3)cc2s1 | – | inconclusive: 18.4% [activator] |
| CSc1cccc(NC(=O)c2cnn3ccccc23)c1 | inconclusive: 2.51 µM [activator, partial curve, poor fit] | – |
| COc1ccccc1-c1ccc(NC2CCCC2)nn1 | inconclusive: 10 µM [activator, partial curve, poor fit] | – |
| Cn1c(SCC(=O)NCc2cccs2)nnc1-c1cccs1 | – | inactive: 0.0907% |

| SMILES | Potency | activation |
| --- | --- | --- |
| O=C(c1ccco1)N1CCN(C(=O)c2cc(-c3ccccc3F)no2)CC1 | inconclusive: 14.1 µM [activator, partial curve, poor fit] | – |
| O=C1N/C(=N\N=C\c2ccco2)SC1Cc1ccccc1[N+](=O)[O-] (stereo not drawn) | – | inactive: -50.7% |
| O=C(N/N=C/c1ccccc1F)NC1CCCCC1 | inconclusive: 12.6 µM [activator, partial curve, poor fit] | – |
| COc1ccc(N=CC2CCCCC2=O)c([N+](=O)[O-])c1 (stereo not drawn) | inconclusive: 22.4 µM [activator, single point] | – |
| Nc1nc(-c2ccc(Oc3ccccc3)cc2)cs1 | active: 11.2 µM | – |
| CC1OC1c1ccc(-c2ccc(C3OC3C)cc2)cc1 (stereo not drawn) | active: 5.01 µM | – |
| Cc1cccc(CSc2ccc(-c3ccco3)nn2)c1 | inconclusive: 10 µM [activator, partial curve, poor fit] | – |
| Cc1nc2oc3ccc(Cl)cc3c(=O)c2cc1C(=O)O | inconclusive: 12.6 µM [activator, partial curve, poor fit] | – |
| O=C(NCC1OCCc2ccccc21)c1cc(COc2c(F)cccc2F)on1 (stereo not drawn) | inconclusive: 11.2 µM [activator, single point] | – |
| COc1ccc(Nc2ncnc3c2nc2n3CCCCC2)cc1 | active: 10 µM | – |
| COC(=O)c1ccc(NC(=O)Nc2ccc(C)cc2)cc1 | inconclusive: 15.8 µM [activator, single point] | – |
| C#CCNC(=O)/C=C/c1ccc(OC)cc1 | active: 12.6 µM | – |
| CCN(CC)c1ccc(/C=C/C(=O)C2C(=O)C=C(C)OC2=O)cc1 (stereo not drawn) | active: 5.62 µM | – |
| N#CCOC(=O)/C=C/c1ccc2c(c1)OCO2 | – | inactive: -6.73% |
| COc1ccc(CCNC(=O)c2ccc3c(c2)OCCO3)cc1 | inconclusive: 14.1 µM [activator, partial curve, poor fit] | – |
| COc1ccc2c(c1)C/C(=C\c1ccc(N(C)C)cc1)C2=O | inconclusive: 22.4 µM [activator, single point] | – |
| Cc1ccc(C(=O)NCC(=O)NC23CC4CC(CC(C4)C2)C3)cc1 | active: 6.31 µM | – |
| Cc1cc(C)cc(C(=O)Nc2nc3ccccc3[nH]2)c1 | active: 7.94 µM | – |
| O=C(Nc1ccc(N2CCOCC2)cc1)c1ccc2c(c1)OCO2 | inconclusive: 12.6 µM [activator, partial curve, poor fit] | – |
| Cc1ccc(OCc2csc(N)n2)cc1 | active: 5.01 µM | – |
| COc1ccccc1N1CCN(CCCN2CC(=O)N3CCCCC3C2=O)CC1 (stereo not drawn) | – | inactive: -7.97% |
| Cc1cnc(NC(=O)C2COc3ccccc3O2)s1 (stereo not drawn) | inconclusive: 1.26 µM [activator, full curve, poor fit] | – |
| Cc1cc(NCc2ccccn2)ccc1Br | inconclusive: 11.2 µM [activator, partial curve, poor fit] | – |
| COc1ccc2cc(CN(CC3CCCO3)S(=O)(=O)c3ccc(C(C)=O)cc3)c(=O)[nH]c2c1 (stereo not drawn) | – | inactive: 1.67% |
| O=C(/C=C/Nc1ccccc1C(=O)O)c1cccs1 | inconclusive: 20 µM [activator, single point] | – |
| Cn1cc(/C=N\NC(=O)c2cccs2)c2ccccc21 | inconclusive: 2.51 µM [activator, full curve, poor fit] | – |

| SMILES | Potency | activation |
| --- | --- | --- |
| Cc1ccc(Nc2cc(C)nc(-c3ccccc3)n2)cc1 | active: 3.16 µM | – |
| CCCC(C)NC(=S)NC(=O)c1cc(S(=O)(=O)N2CCOCC2)ccc1C (stereo not drawn) | – | inactive: -40.5% |
| Cc1nn(C(=O)c2ccoc2C)c(N)c1-c1ccccc1 | inconclusive: 12.6 µM [activator, partial curve, poor fit] | – |
| O=C(NCCc1ccccn1)c1ccc2nc(Cc3ccccc3F)oc2c1 | inconclusive: 15.8 µM [activator, partial curve, poor fit] | – |
| CC(C)CNC(=O)c1cc(-c2ccc(Cl)c(Cl)c2)on1 | inconclusive: 2.82 µM [activator, full curve, poor fit] | – |
| O=c1c2c(nc3cc(-c4ccccc4)[nH]n13)CCC2 | inconclusive: 0.631 µM [activator, full curve, poor fit] | – |
| Fc1ccccc1NC(=S)N1CCC(c2ccccc2)C1 (stereo not drawn) | inconclusive: 1.12 µM [activator, full curve, poor fit] | – |
| CC(=O)c1cccc(NC(=O)c2ccc(-c3c(C)noc3C)c3ccoc23)c1 | – | inactive: -7.29% |
| Cc1cc(C)nc(N2CCCC(C(=O)NCC(c3ccccc3)c3ccccc3)C2)n1 (stereo not drawn) | – | inactive: -18.7% |
| COc1ccc(/C=C/c2sc3ccccc3[n+]2CCCCI)cc1OC | inconclusive: 35.5 µM [activator, single point] | – |
| CCCN(C(=O)Nc1cn(CC(C)C)c(=O)c2ccccc12)c1ccc(F)cc1 | – | inactive: -0.18% |
| Cc1ccc(CCC(=O)Nc2ccccc2C(=O)O)o1 | inconclusive: 10 µM [activator, partial curve, poor fit] | – |
| O=c1c2ccccc2oc2cc(C#Cc3ccccn3)ccc12 | inconclusive: 3.16 µM [activator, partial curve, poor fit] | – |
| COCCNC(=O)c1ccc2c(Cl)c3c(nc2c1)CCC3 | active: 5.01 µM | – |
| CCN(CC)c1ccc(N)cc1 | – | inactive: -45% |
| CCOC(=O)Cc1c(C(=O)OCC)nnc2c(-c3ccccc3)c(C)nn12 | – | inactive: -3.12% |
| S=C(NCc1ccc(Cl)cc1)NCc1ccccn1 | – | inactive: -9.19% |
| O=C(Nc1ccc(N2CCCCC2)cc1)c1ccc(F)cc1 | inconclusive: 1.26 µM [activator, full curve, poor fit] | – |
| O=C(NCCCc1ccccc1)c1cc(COc2c(F)cccc2F)on1 | active: 12.6 µM | – |
| Cc1csc(SCC(=O)Nc2sccc2C(N)=O)n1 | active: 6.31 µM | – |
| O=C1c2ccccc2C(=O)N1CCN1CCc2ccccc21 | inconclusive: 25.1 µM [activator, single point] | – |
| CC(=O)Oc1ccc(-c2cc3ccc(OC(C)=O)cc3oc2=O)cc1 | active: 5.62 µM | – |
| Cn1c(=NC(=O)c2cnccn2)sc2ccccc21 | inconclusive: 0.631 µM [activator, full curve, poor fit] | – |
| Cc1cc(N=Nc2ccc3ccccc3c2)ccc1O | inconclusive: 3.16 µM [activator, partial curve, poor fit] | – |
| CC(C)[C@H](NC(=O)OCc1ccccc1)C(=O)OCC(=O)N1CCCCC1 | inconclusive: 11.2 µM [activator, partial curve, poor fit] | – |
| O=C(/C=C/c1ccc(S(=O)(=O)N2CCOCC2)cc1)Nc1cc(F)ccc1F | inconclusive: 14.1 µM [activator, partial curve, poor fit] | – |
